Data taken from PubChem BioAssay AID1347120 (National Center for Advancing Translational Sciences (NCATS), 2019).
The campaign covered roughly 390,000 compounds. About 930 (0.24%) were called active. Inconclusive results, whose numbers are uncertain, are shown with a selection of clear calls. Calls come from the whole dose curve; as a rule, active = well fitted activation curve with a large enough effect; inconclusive = small, poorly fitted or top-dose-only effect; inactive = no such curve, though single readings can be large or run the other way. Potencies beside an inconclusive call are fits to weak or partial responses and may not hold up.

Assay: qHTS for Suppressors of FUS Proteinopathy: Primary screen using FUS-linked yeast assay; note: nearly all actives have a fitted effect of over 55% in size;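 for growth rescue (activation): plate controls were DMSO vehicle for no effect and reference control for full effect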
Settings: S. cerevisiae FUS-expressing, OD600, 24 h; Potency: growth rescue; growth rescue (activation): at 76.6 µM (top of the series)
In short: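 Yeast expressing FUS under galactose induction, OD 0.005 in 2% galactose medium; compounds in a dilution series, 24 h at 30C. Growth rescue by absorbance at 600 nm; CP55940 positive control, DMSO negative.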
Potency is the fitted concentration of half-maximal effect; tags give direction and shape of the fitted curve.

| Structure (SMILES) | Potency | growth rescue (activation) |
| --- | --- | --- |
| CCc1ccccc1NC(=O)CSc1nc(-c2ccccc2OC)nc2c1Cc1c(CO)cnc(C)c1O2 | inconclusive: 25.1 µM [activator, single point] |  |
| Cc1nc2ccc(S(=O)(=O)NCC(=O)N3CCN(c4ccccc4)CC3)cc2s1 | inactive |  |
| Cc1cccc(-n2nc3c(c2NC(=O)C(C)C)CSC3)c1 | inconclusive: 28.2 µM [activator, single point] |  |
| CC/C(O)=C1\C(=O)CC(C)(C)CC1=Nc1ccccc1C | inactive |  |
| CCOc1ccc(-n2c(SCc3ccc(C#N)cc3)nnc2-c2ccco2)cc1 | inconclusive: 39.8 µM [activator, partial curve, poor fit] |  |
| Cc1nc2nc(SCC(=O)NCCc3ccc(Cl)cc3)nn2c(C)c1Cc1ccccc1 | inconclusive: 35.5 µM [activator, partial curve, poor fit] |  |
| CC(=O)c1ccc(N2CCN(Cc3cc(=O)n4c(-c5ccccc5)csc4n3)CC2)cc1 | inconclusive: 28.2 µM [activator, partial curve, poor fit] |  |
| Cc1ccc(S(=O)(=O)c2nc(-c3cccc(C)c3)oc2N2CCN(c3ccccc3)CC2)cc1 | inactive |  |
| CC1CCc2c(sc3nc(C(C)(C)C)nc(N4CCN(C(=O)CCl)CC4)c23)C1 (stereo unspecified) | inconclusive: 50.1 µM [activator, single point] |  |
| Cc1c(Cl)cccc1N1C(=O)C2ON(c3ccccc3)C(c3cccnc3)C2C1=O (stereo unspecified) | inconclusive: 14.1 µM [activator, partial curve] |  |
| O=C(Nc1nc2ccc(F)cc2s1)c1nc(S(=O)(=O)Cc2ccccc2)ncc1Cl | inconclusive: 28.2 µM [activator, single point] |  |
| O=C(O)C1CSC2c3ccccc3C(=O)N12 (stereo unspecified) | inactive |  |
| COC(=O)[C@@]12CCCCC3=C1N(CCC3)C(=O)[C@H]2CC(=O)NCc1ccc(OC)c(OC)c1 | inactive |  |
| O=C(Nc1ccc(S(=O)(=O)N2CCOCC2)cc1)C1CC(=O)N(c2ccc(F)cc2)C1 (stereo unspecified) | inactive |  |
| Cc1ccc(S(=O)(=O)Nc2ccc(N=Nc3ccc(O)cc3)cc2)cc1 | inactive |  |
| O=C(Nc1cccc(S(=O)(=O)N2CCCCC2)c1)Nc1ccc(Cl)cc1Cl | inconclusive: 11.2 µM [activator, partial curve, poor fit] |  |
| Cc1noc(/C=C/N(C)C)c1S(=O)(=O)N1CCCC(C(=O)Nc2ccc3c(c2)OCO3)C1 (stereo unspecified) | active: 5.62 µM |  |
| COc1ccc(/C=N\NC(=O)c2cc(O)c(O)c(O)c2)cc1CN1CCN(c2ccc(F)cc2)CC1 | inconclusive: 39.8 µM [activator, single point] |  |
| O=C(NCC(=O)N1CCN(c2ccccc2O)CC1)c1ccc2ccccc2c1 | inconclusive: 7.94 µM [activator, partial curve, poor fit] |  |
| CCOc1ccc(-c2[nH]ncc2Oc2cccc(OC)c2)c(O)c1 | inconclusive: 17.8 µM [activator, partial curve, poor fit] |  |
| CCCCOc1ccc(CNC(=O)CCCN2C(=O)CSc3c2c(C)nn3-c2ccccc2)cc1 | inconclusive: 15.8 µM [activator, partial curve, poor fit] |  |

| Structure (SMILES) | Potency | growth rescue (activation) |
| --- | --- | --- |
| CCOC(=O)[C@]12CCCC=C1N(Cc1ccc3c(c1)OCO3)C(=O)[C@H](CC(=O)NCc1cccc(C(F)(F)F)c1)C2 | inconclusive: 7.94 µM [activator, partial curve] |  |
| COc1ccc(-c2ccc(CCC(=O)O)n2-c2ccccc2OC)cc1 | inconclusive: 14.1 µM [activator, partial curve] |  |
| CNC(=O)Cn1nc(C)c(S(=O)(=O)N2CCOCC2)c1C | inactive |  |
| CSc1ncc(Cl)c(C(=O)N(Cc2ccc(N(C)C)cc2)Cc2ccco2)n1 | inconclusive: 39.8 µM [activator, single point] |  |
| Cc1cc(C)c2sc(NNC(=O)c3ccc(S(=O)(=O)N4CCc5ccccc5C4)cc3)nc2c1 | inconclusive: 39.8 µM [activator, single point] |  |
| Cc1c(Cl)cccc1NC(=O)C(C)n1nnc2sc3c(c2c1=O)CCCC3 (stereo unspecified) | inactive |  |
| CCOc1ccc2nc(SCC(=O)NC3CCCCC3)[nH]c2c1 | inconclusive: 35.5 µM [activator, single point] |  |
| Nc1c(C(=O)NCc2ccc3c(c2)OCO3)nnn1-c1ccc(OC(F)(F)F)cc1 |  | inconclusive: 67.8% [activator] |
| CCN(CC)S(=O)(=O)c1ccc(N2CCOCC2)c(NC(=O)c2ccc(C#N)cc2)c1 | active: 28.2 µM |  |
| CCCCC1=CC2=CC(=O)C(C)(OC(=O)CC)C(=O)C2=CO1 (stereo unspecified) | inconclusive: 35.5 µM [activator, partial curve, poor fit] |  |
| COc1cccc(NC(=O)CSc2nnc(CNC(=O)c3ccccc3F)o2)c1 | inactive |  |
| O=C(c1ccc2c(Cl)c3c(nc2c1)CCCC3)N1CCN(c2ccc(F)cc2)CC1 | inactive |  |
| CCN1C(=O)[C@H]2[C@@H](c3ccc(C)cc3)N3C(=O)N(c4ccc(OC)cc4)C(=O)[C@@]3(Cc3ccc(Cl)cc3)[C@H]2C1=O | inconclusive: 31.6 µM [activator, single point] |  |
| O=[N+]([O-])c1cc2cccnc2c2ncccc12 | inactive |  |
| O=C(NCc1ccc2c(c1)OCO2)c1cc2c(s1)CS(=O)(=O)C2 | inconclusive: 35.5 µM [activator, partial curve, poor fit] |  |
| CCn1ccc2cc(S(=O)(=O)N3CCC(C(=O)NCCc4ccc(C)cc4)CC3)ccc21 | inconclusive: 35.5 µM [activator, single point] |  |
| COc1ccc(NC(=O)CSCc2cnn(-c3ccccc3)c2-n2cccc2)cc1 | inconclusive: 35.5 µM [activator, single point] |  |
| CCSc1ccc(-c2cc(NC=O)c3ncc(-c4cccc(C(=O)N(C)C)c4)n3c2)cc1 | active: 25.1 µM |  |
| O=C1NC(Cc2ccccc2)c2nc3ccc(Cl)cc3c(=O)n2-c2ncccc21 (stereo unspecified) | inconclusive: 50.1 µM [activator, single point] |  |
| COc1cccc(C(=O)Nc2ccc3c(cc2=O)[C@@H](NC(C)=O)CCc2cc(OC)c(OC)c(OC)c2-3)c1 | inconclusive: 28.2 µM [activator, partial curve, poor fit] |  |
| Cc1ccc(N2C(=O)c3[nH]nc(-c4ccc(Cl)cc4)c3C2c2ccc(F)cc2)cc1 (stereo unspecified) | inconclusive: 50.1 µM [activator, single point] |  |

| Structure (SMILES) | Potency | growth rescue (activation) |
| --- | --- | --- |
| CCC1(c2ccccc2)NC(=O)N(CC(=O)Nc2ccc(Cl)c(S(=O)(=O)N3CCCCC3)c2)C1=O (stereo unspecified) | inconclusive: 31.6 µM [activator, single point] |  |
| COC(=O)[C@]12C[C@H](CC(=O)NCCCN3CCCC3=O)C(=O)N(CCc3ccc(OC)c(OC)c3)C1=C[C@H](C1CCCC1)O[C@@H]2C | inconclusive: 4.47 µM [activator, full curve] |  |
| COC(=O)[C@]12C[C@H](CC(=O)NCCc3ccccc3OC)C(=O)N(Cc3ccco3)C1=C[C@H](C(C)(C)C)O[C@@H]2C | inconclusive: 28.2 µM [activator, single point] |  |
| COC(=O)C(CCSC)NC(=O)c1c(C)oc2ncn(CC(C)C)c(=O)c12 (stereo unspecified) | inactive |  |
| N#C/C(=C\c1cn(-c2ccccc2)nc1-c1cccnc1)c1nnc2n1CCCCC2 |  | inconclusive: 85.9% [activator] |
| Cc1cccc(C)c1-n1cccc1/C=C1\SC(=S)N(c2cccc(C(=O)O)c2)C1=O | inconclusive: 28.2 µM [activator, single point] |  |
| COc1ccc(C(=O)/C(=C/O)N=Nc2ccc(F)cc2)cc1 | inactive |  |
| CC(/C=N/NC(=O)c1ccccn1)=C\c1ccco1 | inactive |  |
| O=C(Nc1ccc2c(c1)OCO2)C1CCN(C(=O)CSc2ncnc3ccccc23)CC1 | inconclusive: 39.8 µM [activator, partial curve, poor fit] |  |
| COc1ccc(NC(=O)CO/N=C(\C)c2cccs2)cc1 | inconclusive: 50.1 µM [activator, single point] |  |
| COc1cc(OC)c(C(=O)Nc2ccc(S(=O)(=O)Nc3ncccn3)cc2)cc1OC | inconclusive: 25.1 µM [activator, partial curve, poor fit] |  |
| CC(C)C[C@@H](CO)NC(=O)CC[C@H](NC(=O)OC(C)(C)C)C(=O)N(Cc1ccccc1)Cc1ccccc1 | inconclusive: 12.6 µM [activator, partial curve, poor fit] |  |
| COc1ccc(/C=C/c2noc(-c3ccccc3O)n2)cc1 | inactive |  |
| COc1ccc(OC)c(C2=NS(=O)(=O)N(C)C(C(=O)Nc3cccc(C(C)=O)c3)=C2)c1 | inconclusive: 11.2 µM [activator, partial curve, poor fit] |  |
| Cc1c(NC(=O)/C=C/c2cn(-c3ccccc3)nc2-c2ccc(F)cc2)c(=O)n(-c2ccccc2)n1C | inconclusive: 10 µM [activator, partial curve] |  |
| COC(=O)[C@]12CCCCC=C1N(Cc1cccc3ccccc13)C(=O)[C@H](CC(=O)NCC13CC4CC(CC(C4)C1)C3)C2 | inconclusive: 31.6 µM [activator, partial curve, poor fit] |  |
| CCOC(=O)C1(S(=O)(=O)c2ccccc2)CCN(Cc2ccc(Cl)cc2)CC1 | inconclusive: 4.47 µM [activator, partial curve, poor fit] |  |
| C[C@H](CO)N1C[C@H](C)[C@@H](CN(C)C(=O)Nc2ccccc2)Oc2ccc(NC(=O)Nc3ccc4c(c3)OCO4)cc2C1=O | inconclusive: 50.1 µM [activator, single point] |  |
| O=C(c1ccc2c(c1)N(Cc1ccccc1)C(=O)c1ccccc1S2(=O)=O)N1CCN(c2ccccn2)CC1 | inactive |  |
